Test results taken from PMC7230264.
Positions count from the first letter of the chain named. These are yes or no findings as the source states them, for the method shown. In cells and extracts the contact can be indirect. Some entries that bind do so weakly or less than the wild type. Sequences can lack the tags named with a protein. One block for each binder: values may come before it.

Key:
Experiment in all cases: co-IP; lysates of HEK293T cells transfected 48 h with EGFP-tagged MAG clones (50 mM Tris-HCl pH 8.0, 120 mM NaCl, 0.5% Triton X-100, sonicated); anti-GFP antibody on Dynabeads, overnight at 4 °C; immunoblots for endogenous GM130 and calnexin
[1] = biological target: T1, wild-type myelin-associated glycoprotein (MAG) in fusion with a C-terminal EGFP-tag (human) (UniProt P20916)
T1 sequence: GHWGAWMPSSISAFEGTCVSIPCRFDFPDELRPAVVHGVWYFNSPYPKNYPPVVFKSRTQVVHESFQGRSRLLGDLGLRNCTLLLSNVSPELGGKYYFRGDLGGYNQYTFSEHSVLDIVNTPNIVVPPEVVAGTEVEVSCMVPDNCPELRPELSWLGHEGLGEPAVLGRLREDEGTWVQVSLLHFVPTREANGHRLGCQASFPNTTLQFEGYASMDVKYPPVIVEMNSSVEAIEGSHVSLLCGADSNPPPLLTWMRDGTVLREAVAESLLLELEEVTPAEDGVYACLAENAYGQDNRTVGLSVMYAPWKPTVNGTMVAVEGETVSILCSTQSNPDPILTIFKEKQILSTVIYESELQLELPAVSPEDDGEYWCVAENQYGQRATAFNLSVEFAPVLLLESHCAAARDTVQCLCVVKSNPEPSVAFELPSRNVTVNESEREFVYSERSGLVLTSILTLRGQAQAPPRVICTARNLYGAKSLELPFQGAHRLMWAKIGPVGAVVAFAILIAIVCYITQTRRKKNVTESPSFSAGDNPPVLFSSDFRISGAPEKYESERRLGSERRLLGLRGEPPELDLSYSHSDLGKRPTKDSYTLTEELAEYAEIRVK

[2] = biological target: T2, MAG carrying the p.Cys42Arg variant in fusion with a C-terminal EGFP-tag (human) (UniProt P20916)
T2 sequence: T1 sequence with C23R

[3] = biological target: T3, MAG carrying the p.Ser133Arg variant in fusion with a C-terminal EGFP-tag (human) (UniProt P20916)
T3 sequence: T1 sequence with S114R

binding [1]: binds
binding [2]: no binding
binding [3]: no binding
B1: GM130 (protein, UniProt Q08379 1-1002)
chain: MWPQPRLPPRPAMSEETRQSKLAAAKKKLREYQQRNSPGVPTGAKKKKKIKNGSNPETTTSGGCHSPEDTPKDNAATLQPSDDTVLPGGVPSPGASLTSMAASQNHDADNVPNLMDETKTFSSTESLRQLSQQLNGLVCESATCVNGEGPASSANLKDLESRYQQLAVALDSSYVTNKQLNITIEKLKQQNQEITDQLEEEKKECHQKQGALREQLQVHIQTIGILVSEKAELQTALAHTQHAARQKEGESEDLASRLQYSRRRVGELERALSAVSTQQKKADRYNKELTKERDALRLELYKNTQSNEDLKQEKSELEEKLRVLVTEKAGMQLNLEELQKKLEMTELLLQQFSSRCEAPDANQQLQQAMEERAQLEAHLGQVMESVRQLQMERDKYAENLKGESAMWRQRMQQMSEQVHTLREEKECSMSRVQELETSLAELRNQMAEPPPPEPPAGPSEVEQQLQAEAEHLRKELEGLAGQLQAQVQDNEGLSRLNREQEERLLELERAAELWGEQAEARRQILETMQNDRTTISRALSQNRELKEQLAELQSGFVKLTNENMEITSALQSEQHVKRELGKKLGELQEKLSELKETVELKSQEAQSLQQQRDQYLGHLQQYVAAYQQLTSEKEVLHNQLLLQTQLVDQLQQQEAQGKAVAEMARQELQETQERLEAATQQNQQLRAQLSLMAHPGEGDGLDREEEEDEEEEEEEAVAVPQPMPSIPEDLESREAMVAFFNSAVASAEEEQARLRGQLKEQRVRCRRLAHLLASAQKEPEAAAPAPGTGGDSVCGETHRALQGAMEKLQSRFMELMQEKADLKERVEELEHRCIQLSGETDTIGEYIALYQSQRAVLKERHREKEEYISRLAQDKEEMKVKLLELQELVLRLVGDRNEWHGRFLAAAQNPADEPTSGAPAPQELGAANQQGDLCEVSLAGSVEPAQGEAREGSPRDNPTAQQIMQLLREMQNPRERPGLGSNPCIPFFYRADENDEVKITVI

binding [1]: binds
binding [2]: binds
binding [3]: binds
B2: calnexin (protein, UniProt P27824 21-592)
chain: HDGHDDDVIDIEDDLDDVIEEVEDSKPDTTAPPSSPKVTYKAPVPTGEVYFADSFDRGTLSGWILSKAKKDDTDDEIAKYDGKWEVEEMKESKLPGDKGLVLMSRAKHHAISAKLNKPFLFDTKPLIVQYEVNFQNGIECGGAYVKLLSKTPELNLDQFHDKTPYTIMFGPDKCGEDYKLHFIFRHKNPKTGIYEEKHAKRPDADLKTYFTDKKTHLYTLILNPDNSFEILVDQSVVNSGNLLNDMTPPVNPSREIEDPEDRKPEDWDERPKIPDPEAVKPDDWDEDAPAKIPDEEATKPEGWLDDEPEYVPDPDAEKPEDWDEDMDGEWEAPQIANPRCESAPGCGVWQRPVIDNPNYKGKWKPPMIDNPSYQGIWKPRKIPNPDFFEDLEPFRMTPFSAIGLELWSMTSDIFFDNFIICADRRIVDDWANDGWGLKKAADGAAEPGVVGQMIEAAEERPWLWVVYILTVALPVFLVILFCCSGKKQTSGMEYKKTDAPQPDVKEEEEEKEEEKDKGDEEEEGEEKLEEKQKSDAEEDGGTVSQEEEDRKPKAEEDEILNRSPRNRKPRRE
